# Data: PubChem BioAssay AID1347071 (National Center for Advancing Translational Sciences (NCATS), 2019)
# About 260 (0.063%) of roughly 410,000 compounds were called active. Inconclusive results, whose numbers are uncertain, are shown with a selection of clear calls. Calls follow the shape of the dose curve; as a rule, active = well fitted activation curve with a large enough effect; inconclusive = small, poorly fitted or top-dose-only effect; inactive = no such curve, though single readings can be large or run the other way. No potency is given beside an inconclusive call; the fits are too rough.
# Test: qHTS for compounds that reverse cellular toxicity of Amyloid beta (A-beta) peptide in yeast: Primary Screen; also: nearly all actives have a fitted effect of over 55% in size
# Conditions: yeast expressing A-beta42, growth rescue, OD600, 48 h; growth rescue: at 46.1 µM (top of the series), 0% DMSO, 100% iron-clioquinol control
# Summary of the method: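 Growth rescue measured by 600 nm absorbance after 48 h yeast culture at 30 C with compound. Values normalized between DMSO and an equimolar ferric chloride plus clioquinol control.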
# Potency is read from the fitted curve at half-maximal effect; tags tell the direction and shape of the fitted curve.
SMILES,Potency,growth rescue
O=C(CCCN1C(=O)c2ccccc2C1=O)NCCc1ccc(OC(F)F)cc1,"inconclusive [activator, single point]",
Cc1cc(C)cc(NC(=S)NCc2cccs2)c1,,inactive: 6.83%
COc1cccc(Cn2c3ccc(NC(=O)CC(C)C(F)(F)F)cc3c(=O)n2C)c1 (stereo not given),,inconclusive: -14.1% [activator]
Cc1ccccc1CN1c2ccccc2S(=O)(=O)c2ccccc21,,inactive: -30.7%
Cc1c(CNC2CCCCCC2)c(C(=O)O)c(C)n1Cc1ccc(F)cc1Cl,"inconclusive [activator, partial curve]",
O=C(NCc1ccccc1)c1ccc2nc(CCc3ccccc3)oc2c1,"inconclusive [activator, single point]",
COc1ccccc1N1CCN(C(=O)CSc2n[nH]c(-c3ccccc3)n2)CC1,,inactive: -8.54%
Cc1ccc(S(=O)(=O)c2c(N)n(-c3ccccc3)c3nc4ccccc4nc23)cc1,,inactive: 4.69%
COc1cc(C(O)c2nc(-c3cccc4cccnc34)cs2)ccc1F (stereo not given),"inconclusive [activator, single point]",
O=C(CO/N=C/c1ccc(Cl)cc1Cl)NNC(=O)c1ccc(Cl)cc1Cl,"inconclusive [activator, partial curve, poor fit]",
CCC(C)[C@H](NC(=O)C1CC(=O)N(c2ccc(OC)cc2)C1)C(=O)N1CCCCC1 (stereo not given in full),"inconclusive [activator, single point]",
O=C(NC1CCCCC1)C1CCCN(S(=O)(=O)c2ccc(Br)s2)C1 (stereo not given),"inconclusive [activator, single point]",
CC(C)OCCCNC(=S)NNC(=O)c1ccc(Cl)c(Cl)c1,"inconclusive [activator, partial curve, poor fit]",
COC(=O)c1cc(C#N)c(Oc2cccc(C)c2C)nc1C,"inconclusive [activator, partial curve, poor fit]",
CCOc1ccc(N/C(SCc2cccc([N+](=O)[O-])c2)=C(/C#N)C(N)=O)cc1,"inconclusive [activator, single point]",
Cc1cccc(-n2c(-c3csc(C)c3C)n[nH]c2=S)c1,"inconclusive [activator, partial curve]",
CN(C(=O)c1sc2nc(N3CCOCC3)c3c(c2c1N)CCCC3)c1ccccc1,"inconclusive [activator, full curve]",
CCOc1ccccc1NC(=O)c1c(NC(=O)C(C)Oc2ccc(Cl)cc2)sc2c1CCCCC2 (stereo not given),,inactive: 15.5%
Nc1c(-c2ccc(C(F)(F)F)cc2)nc2ncccn12,,inactive: -22.6%
CC(C)CCOc1ccc(C(=O)O)cc1,"inconclusive [activator, partial curve, poor fit]",
COc1ccc(Cl)cc1C(=O)NNC(=S)NC1CCCC1,"inconclusive [activator, partial curve, poor fit]",
O=C1NC2(CCCCCCC2)C(=O)N1Cc1ccc(F)cc1,"inconclusive [activator, partial curve]",
COc1ccc(/C=N/NC(=O)c2cccc([N+](=O)[O-])c2)cc1OC(=O)c1ccc(C)cc1,"inconclusive [activator, single point]",
O=C(c1cc2ccccc2cc1O)N1CCN(c2ccccc2O)CC1,"inconclusive [activator, single point]",

SMILES,Potency,growth rescue
CCCOc1ccc(CSCCNC(=S)Nc2ccccc2)cc1,"inconclusive [activator, single point]",
Cc1cc(=O)[nH]c2c(C)cc(S(=O)(=O)NCc3ccccc3)cc12,"inconclusive [activator, single point]",
COC(=O)C1=CN(c2cc(C)cc(C)c2)C=C(C(=O)OC)C1c1cccc(F)c1,,inactive: -1.1%
O=C1[C@H]2[C@@H](c3ccc(C(F)(F)F)cc3)N[C@]3(CCCN(Cc4ccc(C(F)(F)F)cc4)C3=O)[C@H]2C(=O)N1Cc1ccccc1,"inconclusive [activator, partial curve, poor fit]",
Cc1cc2c(NC3CCCCC3)ncnc2s1,,inactive: 6.13%
NC(=O)COc1ccccc1,,inactive: 17.4%
O=C(c1cccs1)N1C[C@@H](n2cc(C3CC3)nn2)[C@H](O)C[C@@H]1c1ccc(Cl)cc1,,inactive: 9.87%
O=C(CN1C(=O)NC(Cc2ccccc2)(Cc2ccccc2)C1=O)NCC1CCCCC1,"inconclusive [activator, partial curve, poor fit]",
COc1ccc(-c2ccc3[nH]c4c(c3c2)CCN2C[C@@H]([C@H](C)OC(=O)Nc3cc(Cl)cc(Cl)c3)[C@@H](N(C)C(=O)Nc3cc(Cl)cc(Cl)c3)C[C@@H]42)cc1,"inconclusive [activator, partial curve, poor fit]",
O=C(NCc1c(O)ccc2ccccc12)c1ccccc1,"inconclusive [activator, single point]",
Cc1ccc(C)c(COc2coc(CN3CCN(C(=O)c4ccco4)CC3)cc2=O)c1,"inconclusive [activator, single point]",
CCOC(=O)c1ccc(NC(=S)NCc2ccccc2)cc1,"inconclusive [activator, single point]",
NNC(=S)Nc1cccc(Cl)c1,"inconclusive [activator, single point]",
CCc1ccc(CNC(=O)c2sc3nc[nH]c(=O)c3c2C)cc1,,inactive: -13.3%
O=C(N/N=C/c1cn(-c2ccccc2)nc1-c1cccnc1)c1ccc(F)cc1,"inconclusive [activator, full curve, poor fit]",
CCn1c(=S)[nH]c2sc3c(c2c1=O)CCCCC3,"inconclusive [activator, single point]",
Cc1ccc(C2=CC(c3ccccc3)n3ncnc3N2)c(C)c1 (stereo not given),,inconclusive: 33.1% [activator]
Fc1ccccc1/C=N/n1cc(-c2ccccc2)[nH]c1=S,"inconclusive [activator, partial curve, poor fit]",
O=C(NC(=S)NC1C2CC3CC(C2)CC1C3)c1ccccc1 (stereo not given),"inconclusive [activator, partial curve, poor fit]",
CC(c1ccccc1)N(CC(=O)NC1CCCCC1)S(=O)(=O)c1cccc(C(F)(F)F)c1 (stereo not given),"inconclusive [activator, full curve, poor fit]",
CSc1nc(=S)cc(C)[nH]1,"inconclusive [activator, single point]",
O=C(Nc1ccc(Br)cc1)C1CCN(c2ncccn2)CC1,,inactive: -0.921%
Cc1cc(C)n(Cc2ccccc2)c(=O)c1S(=O)(=O)c1ccccc1,"inconclusive [activator, single point]",
CCc1ccc(-n2nc(CO)c(C(=O)NCc3cccnc3)n2)cc1,,inactive: 12%

SMILES,Potency,growth rescue
Cc1ccc(-c2onc(C)c2C)cc1S(=O)(=O)Nc1cccc(Cl)c1C,,inactive: -1.68%
COc1ccc(CCCc2n[nH]c(=S)n2C)cc1C,"inconclusive [activator, single point]",
Cc1ccc(-c2nn(C)c(=O)c3ccccc23)cc1S(=O)(=O)NCCCN(C)C,,inactive: 17.6%
N#Cc1cn(CCOc2ccc(F)cc2)c2ccccc12,"inconclusive [activator, single point]",
O=C1c2ccccc2NC(c2ccc(-c3ccc(C(F)(F)F)cc3)o2)N1O (stereo not given),"inconclusive [activator, single point]",
COc1ccc2nc(Nc3nc4ccc(NC(C)=O)cc4s3)sc2c1,"inconclusive [activator, full curve]",
Cc1ccccc1N=C1SCCN1C(=O)CN1C(=O)NC2(CCCC2)C1=O,"inconclusive [activator, partial curve, poor fit]",
CCCN(CCC)C(=O)Cc1ccc(F)cc1,"inconclusive [activator, single point]",
CCOc1ccc(OCc2ccc(C(=O)N/N=C(\C)c3ccccn3)cc2)cc1,"inconclusive [activator, single point]",
NC(=O)COc1ccc(NC(=O)OCc2ccccc2)cc1,,inactive: 0.281%
Cc1c(-c2ncn[nH]2)sc(C#N)c1-c1ccccc1,"inconclusive [activator, single point]",
CCN(C(=O)/C=C/c1ccc(OC)cc1)C1CCS(=O)(=O)C1 (stereo not given),,inactive: -2.34%
C=CCNc1nc(NCc2ccco2)nc(OCC)n1,"inconclusive [activator, partial curve, poor fit]",
Oc1ccc(Cc2ncc(C(F)(F)F)cc2Cl)cc1,"inconclusive [activator, single point]",
S=C(Nc1cccc(Br)c1)c1ccccc1,"inconclusive [activator, partial curve, poor fit]",
O=C(Cn1ncc2c1-c1ccccc1OC2)N1CCN(c2ccccn2)CC1,,inactive: -5.06%
COCCNC(=S)Nc1ccccn1,"inconclusive [activator, single point]",
CCCCCCCCCCCCCCCCn1cc[n+](C)c1,inactive,
COC(=O)N(C)C[C@@H]1OCc2cn(nn2)CCCC(=O)N([C@@H](C)CO)C[C@H]1C,,inactive: -7.62%
COc1ccc(NC(=O)c2cc(=O)c3cc(C)cc(C)c3o2)cc1,,inactive: -9.55%
O=C(Cc1ccccc1)Nc1nc2ccccc2s1,active: 7.08 µM,
COc1ccc(CN2CCN(Cc3c[nH]c4ccccc34)CC2CCO)cc1C (stereo not given),"inconclusive [activator, partial curve, poor fit]",
